The results in this text go back to article PMC4336329 (PLoS ONE, 2015).

The campaign covered roughly 310,000 compounds. About 2,200 (0.71%) showed an effect of 50% or more. The effect is printed as a negative number. This is one part of the list.

Chain of human ether-à-go-go-related gene (hERG) potassium channel (Q12809 whole entry, looked up): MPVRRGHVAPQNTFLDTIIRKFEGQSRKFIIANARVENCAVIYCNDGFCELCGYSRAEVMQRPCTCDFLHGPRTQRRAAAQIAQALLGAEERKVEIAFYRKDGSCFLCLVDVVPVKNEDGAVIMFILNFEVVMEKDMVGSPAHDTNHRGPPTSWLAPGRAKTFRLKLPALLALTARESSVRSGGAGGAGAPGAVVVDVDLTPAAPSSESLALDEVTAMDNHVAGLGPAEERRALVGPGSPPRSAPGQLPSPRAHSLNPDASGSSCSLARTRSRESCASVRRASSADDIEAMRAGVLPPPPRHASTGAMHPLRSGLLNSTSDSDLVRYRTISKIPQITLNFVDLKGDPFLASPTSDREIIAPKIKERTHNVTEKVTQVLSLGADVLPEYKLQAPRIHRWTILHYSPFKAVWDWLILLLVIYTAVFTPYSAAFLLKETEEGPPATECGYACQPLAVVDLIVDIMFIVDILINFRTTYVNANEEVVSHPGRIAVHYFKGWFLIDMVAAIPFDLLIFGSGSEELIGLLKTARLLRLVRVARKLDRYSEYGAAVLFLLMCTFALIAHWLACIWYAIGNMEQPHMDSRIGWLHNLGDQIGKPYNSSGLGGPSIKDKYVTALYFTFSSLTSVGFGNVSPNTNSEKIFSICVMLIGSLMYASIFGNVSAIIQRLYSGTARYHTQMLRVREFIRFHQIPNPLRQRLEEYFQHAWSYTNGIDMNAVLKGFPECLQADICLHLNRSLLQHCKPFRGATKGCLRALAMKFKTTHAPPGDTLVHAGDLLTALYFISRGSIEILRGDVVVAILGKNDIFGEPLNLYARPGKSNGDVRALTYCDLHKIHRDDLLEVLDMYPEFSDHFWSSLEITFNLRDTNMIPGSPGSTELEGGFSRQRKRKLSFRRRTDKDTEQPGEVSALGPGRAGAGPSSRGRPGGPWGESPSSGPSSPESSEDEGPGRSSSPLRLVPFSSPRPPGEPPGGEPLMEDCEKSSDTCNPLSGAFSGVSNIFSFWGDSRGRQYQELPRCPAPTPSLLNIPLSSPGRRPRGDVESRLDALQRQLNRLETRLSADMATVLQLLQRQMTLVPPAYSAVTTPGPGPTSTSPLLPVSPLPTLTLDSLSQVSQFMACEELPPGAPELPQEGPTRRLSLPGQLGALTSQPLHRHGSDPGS

This experiment has as its target human ether-à-go-go-related gene (hERG) potassium channel (human, UniProt Q12809). The experiment in a line: primary screen, population patch clamp on CHO cells stably expressing hERG.
Regarding `O=C(Cn1nc(C(F)(F)F)cc1C1CC1)NCc1ccccc1F`, the “hERG current change (%, negative = inhibition) at 1uM” value is 9.54%. `CC(=O)Nc1cc(C(=O)NCc2ccco2)ccc1Sc1ccc(Cl)cc1`: the “hERG current change (%, negative = inhibition) at 1uM” value worked out at 0.469%. Then `COc1ccc(-c2nnc(SCc3nnc(-c4ccccc4)o3)n2C)cc1OC`, with -18.8%. Take `Cc1ccc(OCCC(=O)OC(C)C(=O)NC2CC2)cc1` (centres unmarked): the “hERG current change (%, negative = inhibition) at 1uM” value amounted to 13.1%.

Regarding `CC(C)OC(=S)N/C(=N\S(=O)(=O)c1ccccc1)c1ccccc1`, the “hERG current change (%, negative = inhibition) at 1uM” value stood at 3.61%. Then `O=C(OCCN=C1NS(=O)(=O)c2ccccc21)c1ccco1`, with 11.5%; and `C=C(C)c1cccc(C(C)(C)NC(=O)Nc2ccc(C)cn2)c1`, with 12.1%; and `CCOc1ccccc1OCC(=O)OCC(=O)NNC(=O)c1ccc([N+](=O)[O-])cc1`, with 4.34%.

On to `Cc1ccc(-c2csc(NC(=O)c3cccs3)n2)cc1`, for which the “hERG current change (%, negative = inhibition) at 1uM” value is listed as 13.5%. For `COCCCNc1nc2ccccc2nc1NS(=O)(=O)c1ccc(OC)cc1` the value was 12.6%; for `CCOC(=O)c1c(C)[nH]c(C(=O)OCC(=O)Nc2cc(C)ccc2OC)c1C`, 9.06%; for `CC(=NCc1ccco1)C1=C(O)c2ccccc2C1=O`, 2.47%. Then `Cc1cc(C)nc(NS(=O)(=O)c2ccc(NC(=O)CCC3COc4ccccc4O3)cc2)n1` (centres unmarked), with 3.52%; and `COc1ccc(/C=N/NC(=O)c2ccn[nH]2)cc1COc1ccc(Cl)cc1Cl`, with 6.11%. For `CC(NC(=O)c1ccc(OC2CCN(Cc3ccccn3)CC2)cc1)c1ccccc1` (centres unmarked) the value was 0.843%; for `CC(C)Cc1nnc(NC(=O)CCC(=O)N2CCN(c3ccc(Cl)cc3)CC2)s1`, 10.4%. Turning to `O=C(CS(=O)(=O)c1ccc(Cl)cc1)NCCS(=O)(=O)c1ccc(Cl)cc1`, the “hERG current change (%, negative = inhibition) at 1uM” value is -13.2%. For `O=C(CCCCCn1c(=S)[nH]c2ccsc2c1=O)NC1CCCCC1` the value was 6.47%; for `COc1ccc(CNC(=O)/C=C/c2ccc(S(=O)(=O)N3CCOCC3)cc2)cc1`, 6.02%; for `Cc1cccc(NC(=O)/C(C#N)=C/c2cn(CC(=O)NCc3ccco3)c3ccccc23)c1C`, -9.93%. Then `CCOC(=O)C1CCN(c2cc(=O)n(-c3ccccc3Cl)c(=O)[nH]2)CC1`, with 12.2%; and `O=C(CS(=O)(=O)c1ccccc1)Nc1ccc(Cl)cn1`, with 6.63%. For `CNC(=O)COC(=O)c1ccccc1NC(=O)c1ccco1` the value was -8.43%. Consider `N#Cc1cn(CC(=O)O)c2ccccc12`, for which the “hERG current change (%, negative = inhibition) at 1uM” value came out at 5.61%. Then `CN(C)C(=O)c1ccc(-c2nnc(NCc3ccccc3)c3ccccc23)cc1`, with -10.8%. For `N#Cc1cn(CC(=O)NCC2CCCO2)c2ccccc12` (centres unmarked) the value was 9.64%. Then `CSc1ccc(CSCC(=O)N2CCN(S(=O)(=O)c3ccc(C)cc3C)CC2)cc1`, with 4.65%; and `O=C(NCCN1CCOCC1)c1c(O)nc2sccn2c1=O`, with 18.8%; and `CCOC(=O)C1=C(C)NC(=O)NC1C1CC=CCC1` (centres unmarked), with 9.44%. For the compound `CCOc1ccc(C2C(C#N)=C(N)Oc3cc(C)n(CCN(C)C)c(=O)c32)cc1OCC` (centres unmarked), the “hERG current change (%, negative = inhibition) at 1uM” value is -14.9%. Take `c1ccc(CCNC2=NCCS2)cc1`: the “hERG current change (%, negative = inhibition) at 1uM” value came out at 10.7%. Then `CC(C)CCN1C(N(C)C)=NC[C@@H]1C`, with 17%. Then `CC(C)CN(C(=O)COC(=O)CCc1nc2ccccc2s1)c1c(N)n(Cc2ccccc2)c(=O)[nH]c1=O`, with 9.03%. Then `CCCCNC(=O)NC1(C(F)(F)F)Oc2ccccc2O1`, with 1.29%; and `CCOC(=O)C(C(=O)OCC)N(C#N)c1nc(SC)nc(N(C)C)n1`, with -1.13%. Regarding `COc1ccc(OC)c(NC(=O)c2ccc(S(=O)(=O)N3CCN(C)CC3)cc2)c1`, the “hERG current change (%, negative = inhibition) at 1uM” value is given as 6.54%. Then `O=C(C1CC1)N1CCc2cc(Br)cc(S(=O)(=O)NC3CCCCC3)c21`, with 10.8%.

As to `COc1ccc(C2C3=C(OC(C)=O)c4ccccc4C3=Nc3c2c(=O)n(C)c(=O)n3C)cc1` (centres unmarked), the “hERG current change (%, negative = inhibition) at 1uM” value turned out to be 7.97%. Then `CC(=O)C1C(=O)CC(C)(O)C(C(C)=O)C1c1ccccc1` (centres unmarked), with 12.3%. Consider `Cc1c(C(=O)OCC(=O)N(CCC#N)c2ccccc2)oc2c1ccc1ccccc12`, for which the “hERG current change (%, negative = inhibition) at 1uM” value is on record as 6.58%.

For `CCOC(=O)N1CCN(C(=O)CCSc2ccc(Cl)cc2)CC1`, the “hERG current change (%, negative = inhibition) at 1uM” value is listed as -20.4%. `COc1ccc(Br)c(C(=O)OCC(=O)NC2CCCCCC2)c1`: the “hERG current change (%, negative = inhibition) at 1uM” value is listed as -1.39%. Turning to `COc1ccc(Nc2nc(Cl)nc(Nc3ccc(OC)cc3OC)n2)c(OC)c1`, the “hERG current change (%, negative = inhibition) at 1uM” value was found to be 9.71%.

For `Cc1ccc(-c2csc(NC(=O)C3=NN(C4CCS(=O)(=O)C4)C(=O)CC3)n2)cc1` (centres unmarked), the “hERG current change (%, negative = inhibition) at 1uM” value turned out to be 3.07%. For `COc1ccc(NC(=O)CSc2nccn2Cc2ccccc2)c(OC)c1` the value was 6.24%; for `CC1CCCC(C)N1S(=O)(=O)c1ccc(S(=O)(=O)NCCc2ccncc2)cc1` (centres unmarked), -3.98%. Consider `CCOC(=O)C1=C(C)N(C)C(C)=C(C(=O)OCC)C1c1ccccc1`, for which the “hERG current change (%, negative = inhibition) at 1uM” value was 10.5%. Regarding `CCC(CC)c1nc(C#N)c(NC(C)c2ccccc2)o1` (centres unmarked), the “hERG current change (%, negative = inhibition) at 1uM” value came to 13.5%. For `COCC(C)Nc1nc(C)c(C(C)=O)s1` (centres unmarked) the value was 3.75%; for `O=Cc1ccc(-c2ccc(F)cc2)o1`, 3.76%. Then `Cc1cccc(-n2c(C)nc3cc(C(=O)NCC4CCCO4)ccc32)c1` (centres unmarked), with 5.69%; and `O=C(Nc1ccc(Cl)cc1)Nc1nnc(SCc2ccc(Cl)cc2)s1`, with 6.21%; and `Cc1ccn(CC(=O)N2CCCC(N3CCN(Cc4ccc5c(c4)OCO5)CC3)C2)n1` (centres unmarked), with 11.3%. Then `Cc1ccc(SCCC(=O)OC(C(=O)NC(N)=O)C(C)C)cc1` (centres unmarked), with 7.5%; and `O=C(O)c1ccccc1C(=O)N1CCN(c2ccccc2)CC1`, with 10.7%.

On to `NC(=NC(=O)c1ccccc1)N1CCN(C(c2ccccc2)c2ccccc2)CC1`, for which the “hERG current change (%, negative = inhibition) at 1uM” value turned out to be 2.02%.

For `Cc1cc(C)n(C(=O)CN2C(=O)CCC2=O)n1`, the “hERG current change (%, negative = inhibition) at 1uM” value is 18.5%.

As to `CC(=O)Oc1ccc(N(C(C)=O)S(=O)(=O)c2cccs2)cc1`, the “hERG current change (%, negative = inhibition) at 1uM” value is given as -0.517%. Regarding `COc1cc(C(=O)N2CCN(C(=O)C3COc4ccccc4O3)CC2)cc(OC)c1OC` (centres unmarked), the “hERG current change (%, negative = inhibition) at 1uM” value is -4.76%. For `CCOc1cc(C(=O)Nc2ccc(N3CCN(S(C)(=O)=O)CC3)cc2)cc(OCC)c1OCC` the value was 8.59%. Regarding `COc1cccc(=O)c2c(C)oc(C)c12`, the “hERG current change (%, negative = inhibition) at 1uM” value was 5.14%. Then `O=C1c2ccccc2C(=O)N1CCCc1cn(C[C@H]2CC[C@@H]([C@@H]3CC[C@H](Cn4cc(CCCN5C(=O)c6ccccc6C5=O)nn4)O3)O2)nn1`, with 7.88%. Regarding `O=C(Nc1cc(=O)[nH]c2nc(-c3ccccc3)nn12)c1ccccc1Cl`, the “hERG current change (%, negative = inhibition) at 1uM” value was found to be 18.3%.

On to `CC1=C(C(N)=O)C(c2ccc(C)o2)C(C(N)=O)=C(C)N1`, for which the “hERG current change (%, negative = inhibition) at 1uM” value is listed as 18%.

As to `CCOc1ccc2[nH]c(=O)c(CN(Cc3ccc(C)cc3)C(=O)N3CCCC3)cc2c1`, the “hERG current change (%, negative = inhibition) at 1uM” value amounted to 14.7%. Then `COc1cc(C(=O)Nc2ccc(S(=O)(=O)Nc3onc(C)c3C)cc2)cc(OC)c1OC`, with 8.98%; and `COc1cccc(NC(=O)CN(C)C(C)C(=O)Nc2cc([N+](=O)[O-])ccc2Cl)c1` (centres unmarked), with -2%; and `Cc1cccc(N2CCN(C(=O)C3CCN(S(=O)(=O)N4CCOCC4)CC3)CC2)c1C`, with -3.43%. For `COc1cc(CC(NC(C)=O)C(=O)NC2CCN(C(=O)Nc3ccc(C)cc3)CC2)cc(OC)c1` (centres unmarked) the value was 9.36%; for `CC(C)c1ccc(CNC(=O)CSCC(=O)Nc2ccc3ccccc3c2)cc1`, 9.73%. Then `COc1ccc(OC)c(NC(=O)CCN2CCC(C)CC2)c1.Cl`, with 13.9%; and `CC(C)Sc1nc2ccc(N3C(=O)C4CCCCC4C3=O)cc2s1` (centres unmarked), with -6.86%. With `COCCNC(=O)CCCn1c(=O)c2ccccc2n(Cc2cccc([N+](=O)[O-])c2)c1=O`, the “hERG current change (%, negative = inhibition) at 1uM” value was 7.67%.

Regarding `CCCNC(=S)Nc1ccc2nc(-c3ccccn3)c(-c3ccccn3)nc2c1`, the “hERG current change (%, negative = inhibition) at 1uM” value came to 13.4%.

For `Cc1ccc(-n2ncc(C(=O)N3CCN(C(=O)c4ccco4)CC3)c2-n2cccc2)cc1`, the “hERG current change (%, negative = inhibition) at 1uM” value was 11.2%. Consider `O=C(CNC(c1ccccc1)c1ccccc1)Nc1ccccc1F`, for which the “hERG current change (%, negative = inhibition) at 1uM” value was found to be 15.6%. Then `Cc1ccc(C(=O)NC(C)c2ccc(-n3ccnc3)cc2)cc1S(=O)(=O)N1CCOCC1` (centres unmarked), with -23.4%; and `COC(=O)C(NC(C)=O)(Nc1nc2c(s1)CCCC2)C(F)(F)F` (centres unmarked), with 5.1%.

With `CCSc1nc2c(c(=O)[nH]c(=O)n2C)n1CC(O)COc1ccccc1C` (centres unmarked), the “hERG current change (%, negative = inhibition) at 1uM” value was 6.8%. On to `CC(=O)OC1(c2ccccc2)CCN(C2CCCCC2)CC1C.Cl` (centres unmarked), for which the “hERG current change (%, negative = inhibition) at 1uM” value is reported as -5.77%. As for `COc1ccccc1NC(=O)c1ccc(NC(=O)CN(C)Cc2ccccc2F)cc1`, the “hERG current change (%, negative = inhibition) at 1uM” value was 13.2%.

In the case of `N/C(=N\OC(=O)Cc1ccccc1)c1ccc([N+](=O)[O-])cc1`, the “hERG current change (%, negative = inhibition) at 1uM” value came to 9.05%. Then `COc1cc(C2=NOC(C(=O)Nc3ccc(C(C)=O)cc3)C2)cc(OC)c1OC` (centres unmarked), with 7.62%; and `COc1ccc(C(=O)CN2C(=O)NC3(CCCc4ccccc43)C2=O)c(OC)c1` (centres unmarked), with 18.5%. For `Clc1ccc(-c2nc(C3CCCCC3)no2)cc1` the value was 14.6%; for `O=C(NCC12CC3CC(CC(C3)C1)C2)c1cc2n(n1)C(C(F)(F)F)CC(c1ccco1)N2` (centres unmarked), 4.12%.
